From the supplement of paper PMC12217912
The other results are listed elsewhere or left out. The full chains were built here from the parent and the listed change. Inactive controls read about 0.05.

B1: TEV protease; numbered along this chain (parent)
chain: MGESLFKGPRDYNPISSSICHLTNESDGHTTSLYGIGFGPFIITNKHLFRRNNGTLVVQSLHGVFKVKDTTTLQQHLVDGRDMIIIRMPKDFPPFPQKLKFREPQREERICLVTTNFQTKSMSSMVSDTSCTFPSGDGIFWKHWIQTKDGQCGSPLVSTRDGFIVGIHSASNFTNTNNYFTSVPKNFMELLTNQEAQQWVSGWRLNADSVLWGGHKVFMVKPEEPFQPVKEATQL

Variants of: B1
Experiment: raw area under fraction-flipped curve 0-4 h after induction (AUC4h, not background-subtracted), DNA-recorder readout of cleavage of the substrate (dimensionless); higher = more cleavage of the substrate by the protease variant
Conditions: temperature: 34 °C; time window: 0-4 h after rhamnose induction
Method: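 In vivo DNA recorder in E. coli TOP10(DE3) ΔrhaA at 34 °C. Each TEVp single-site mutant (parent TEVp 0) is paired with a single-site variant of the 7-mer TEVs (canonical ENLYFQ|S). The substrate sits between flexible linkers in a Bxb1-sfGFP-TEVs-SsrA fusion, so cleavage stabilises Bxb1 and speeds flipping of a recombination array, read by NGS. The value is the raw area under the fraction-flipped curve over 0-4 h after rhamnose induction (AUC4h), with ≥20 reads per time point. It is not background-subtracted; inactive controls average about 0.047.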
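Further: Bxb1 expression induced with 0.2% (w/v) L-rhamnose at OD600 near 0.5, cultures sampled hourly, flipped fraction per protease–substrate barcode pair counted by paired-end Illumina sequencing.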

Variant | area with substrate ECLYFQS | area with substrate EDLYFQS | area with substrate EELYFQS | area with substrate EGLYFQS | area with substrate EKLYFQS | area with substrate ELLYFQS | area with substrate EMLYFQS | area with substrate EQLYFQS | area with substrate ERLYFQS | area with substrate ETLYFQS | area with substrate EVLYFQS | area with substrate EYLYFQS | area with substrate EHLYFQS | area with substrate EILYFQS | area with substrate EPLYFQS | area with substrate ESLYFQS | area with substrate EWLYFQS | area with substrate EFLYFQS
R50E | 0.0896 | 0.132 | 0.124 | 0.0519 | 0.0867 | 0.0831 | 0.104 | 0.0975 | 0.0808 | 0.117 | 0.0854 | 0.0822 | – | – | – | – | – | –
Q194T | 0.0969 | – | 0.115 | 0.126 | 0.112 | 0.0776 | 0.123 | – | 0.125 | – | – | 0.11 | 0.11 | 0.0968 | 0.15 | 0.108 | 0.0882 | –
Q74C | 0.0799 | – | 0.141 | 0.0561 | – | – | 0.139 | 0.11 | 0.108 | 0.121 | 0.106 | – | – | 0.0729 | 0.12 | 0.109 | 0.0918 | 0.0856
K100H | 0.113 | – | 0.11 | – | 0.102 | – | 0.112 | 0.122 | 0.109 | – | 0.0572 | 0.0992 | 0.107 | 0.0988 | – | 0.0972 | 0.101 | 0.0857
W141R | 0.0603 | – | – | – | – | – | 0.0356 | 0.0522 | 0.0618 | 0.0513 | 0.0535 | 0.0864 | 0.0758 | 0.0571 | – | 0.0688 | – | –
V229I | 0.125 | 0.131 | 0.137 | 0.0881 | – | 0.0987 | – | – | – | – | – | 0.123 | 0.0939 | – | – | – | 0.105 | –
H47P | 0.0636 | 0.057 | – | 0.0662 | 0.0619 | 0.0553 | 0.0638 | 0.0584 | 0.063 | 0.0413 | 0.0656 | – | 0.0612 | 0.0661 | 0.0609 | 0.0453 | 0.06 | –
V220C | 0.149 | 0.168 | 0.119 | 0.0887 | 0.103 | 0.0977 | – | – | 0.107 | – | 0.118 | 0.12 | – | 0.0081 | 0.16 | 0.108 | 0.0911 | –
S18W | 0.0825 | 0.107 | 0.0962 | – | 0.0881 | 0.0681 | 0.0575 | 0.0996 | 0.0877 | 0.0921 | 0.0829 | 0.0638 | 0.0929 | 0.0899 | – | 0.077 | 0.0625 | 0.0892
E25L | 0.132 | – | 0.126 | 0.0396 | 0.114 | 0.0878 | 0.0992 | 0.116 | 0.0994 | 0.132 | 0.0921 | 0.101 | 0.0858 | 0.0968 | 0.116 | 0.114 | 0.1 | –
M219G | 0.0742 | 0.106 | 0.0958 | – | 0.109 | – | – | – | 0.0781 | – | 0.0693 | 0.0803 | – | 0.067 | 0.0836 | 0.0668 | 0.075 | 0.0831
M219Y | 0.103 | – | 0.0695 | – | – | – | 0.105 | – | 0.101 | – | 0.0821 | – | – | 0.0944 | – | 0.109 | 0.0953 | –
N186P | 0.0595 | 0.112 | – | 0.0653 | 0.0844 | – | – | – | – | – | 0.054 | – | – | – | – | 0.0706 | 0.083 | 0.0837
M125E | 0.0256 | – | 0.127 | – | – | 0.0989 | 0.0926 | 0.104 | 0.0883 | – | – | – | 0.0948 | 0.114 | – | 0.0984 | 0.0485 | –
